Source: article PMC4336329 (PLoS ONE, 2015)
About 14,000 (4.5%) of roughly 310,000 compounds showed an effect of 50% or more. Effects have a minus sign here. This is one part of the list.

Each compound was assayed against human ether-à-go-go-related gene (hERG) potassium channel (human, UniProt Q12809) (assay: primary screen, population patch clamp on CHO cells stably expressing hERG).
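Note: peak tail current of the secondary pulse compared with the same well before compound.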

human ether-à-go-go-related gene (hERG) potassium channel, sequence (Q12809 whole entry, looked up): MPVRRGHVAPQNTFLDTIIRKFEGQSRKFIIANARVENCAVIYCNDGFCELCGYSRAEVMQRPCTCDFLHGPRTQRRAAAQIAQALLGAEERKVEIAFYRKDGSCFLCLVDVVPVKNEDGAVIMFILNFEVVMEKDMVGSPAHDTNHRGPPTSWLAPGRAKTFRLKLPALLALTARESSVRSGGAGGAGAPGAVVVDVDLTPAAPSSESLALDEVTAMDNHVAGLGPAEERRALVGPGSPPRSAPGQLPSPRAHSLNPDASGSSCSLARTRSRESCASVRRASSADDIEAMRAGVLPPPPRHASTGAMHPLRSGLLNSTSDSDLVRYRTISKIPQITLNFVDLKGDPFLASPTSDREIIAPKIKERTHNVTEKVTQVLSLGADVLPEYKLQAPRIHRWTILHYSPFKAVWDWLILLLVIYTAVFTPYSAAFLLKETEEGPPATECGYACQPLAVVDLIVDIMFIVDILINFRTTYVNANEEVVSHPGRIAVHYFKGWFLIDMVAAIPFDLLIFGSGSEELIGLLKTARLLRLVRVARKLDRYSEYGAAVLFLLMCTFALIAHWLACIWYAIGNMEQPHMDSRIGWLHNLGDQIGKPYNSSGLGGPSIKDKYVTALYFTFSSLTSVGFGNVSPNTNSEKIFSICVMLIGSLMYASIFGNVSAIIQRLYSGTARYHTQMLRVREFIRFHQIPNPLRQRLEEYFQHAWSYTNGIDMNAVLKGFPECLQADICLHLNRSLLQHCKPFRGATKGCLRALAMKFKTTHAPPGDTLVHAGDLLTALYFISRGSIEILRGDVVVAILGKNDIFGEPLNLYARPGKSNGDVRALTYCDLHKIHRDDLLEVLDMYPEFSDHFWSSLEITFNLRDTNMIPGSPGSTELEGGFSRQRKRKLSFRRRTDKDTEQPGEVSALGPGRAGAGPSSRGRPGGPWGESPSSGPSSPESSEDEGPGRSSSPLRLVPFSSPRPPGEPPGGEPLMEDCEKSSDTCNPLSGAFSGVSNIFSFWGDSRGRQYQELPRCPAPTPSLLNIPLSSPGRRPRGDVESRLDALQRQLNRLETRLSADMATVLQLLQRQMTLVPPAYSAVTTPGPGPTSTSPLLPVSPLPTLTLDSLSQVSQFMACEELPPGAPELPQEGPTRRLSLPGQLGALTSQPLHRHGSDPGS

SMILES	hERG current change (%, negative = inhibition) at 10uM [%]
O=C(Oc1cccc2cccnc12)c1ccc2c(c1)OCCO2	-6.95
CCN(CC)C(=O)C1CCCN(c2ccc([N+](=O)[O-])cc2[N+](=O)[O-])C1 (centres unmarked)	-38.3
COCCCNC(=O)c1ccc2c(c1)ncn2-c1ccc(C)cc1C	-3.42
Cc1ccc(-n2c(CC#N)n[nH]c2=S)c(C)c1	3.3
Cc1[nH]c2ccc(-c3nnc(SCC(=O)c4ccccc4F)o3)cc2c1C	-1.24
CN1CCC(N(C)CC(=O)Nc2cccc(Oc3ccccc3)c2)CC1.O=C(O)C(=O)O	-11.9
O=C(O)c1ccccc1C(=O)Nc1ccccc1	3.87
COc1cccc(NC(=O)c2cccc(C)c2[N+](=O)[O-])c1	0.407
S=C(c1nc2ccccc2[nH]1)N1CCOCC1	-1.17
O=C(NCc1ccccc1)c1cc(-c2cccs2)on1	5.78
O=C(CCS(=O)(=O)c1ccccc1)Nc1ccc(N2CCOCC2)cc1	8.58
CC(=O)c1ccc(S(=O)(=O)NCC2(N3CCOCC3)CCCCC2)cc1	-6.2
O=C(NCCN1CCN(c2ccccc2)CC1)Nc1ccccc1Br	-52.1
O=C(NC1CCN(S(=O)(=O)c2ccc(Cl)cc2)CC1)C1CCCCC1	6
Cc1cc(C)c2c(n1)SCC(=O)N2CC(=O)Nc1cccc(Cl)c1	-11.2
O=C(Nc1cccnc1)c1ccc2nc(-c3ccccc3)c(-c3ccccc3)nc2c1	8.54
Cc1ccc(CSCCNC(=O)CN(c2ccccc2)S(C)(=O)=O)cc1	1.75
O=C(CCC(=O)N(c1ccccc1)C(C(=O)NC1CCCC1)c1ccncc1)Nc1cccnc1 (centres unmarked)	-1.02
Cn1cccc1Cc1nnc(SCC(=O)NCCc2ccccc2)n1-c1ccc(F)cc1	-21.6
Cc1nc2ccc(NS(=O)(=O)c3ccc4c(c3)OCCO4)cc2s1	-0.994
O=C(CN1CCC(n2nnc3cc(C(F)(F)F)ccc32)CC1)NCc1cccs1	-74.5
CC(=O)c1cc(C)ccc1OC(=O)c1ccncc1	10.8
Cc1nc(C)n(CC(O)COc2ccc3cc(Br)ccc3c2)n1 (centres unmarked)	0.271

SMILES	hERG current change (%, negative = inhibition) at 10uM [%]
C=CCn1c(O)c(/C=C2/C=CC=N2)c(=O)[nH]c1=O	7.43
COC(=O)CNC(=O)C1CC(=O)N(CCc2ccc(F)cc2)C1 (centres unmarked)	25.5
CCOC(=O)c1cnn(-c2ccccc2)c1-n1cccc1C(=O)C(=O)Nc1ccc(F)cc1	2.5
COC(=O)C1=C(c2ccccc2OCc2ccccc2)C[C@@H]2CC[C@H]1N2C(=O)NCc1ccc(F)cc1	-5.95
CCOC(=O)c1c(-c2ccc(C)cc2)csc1NC(=O)C1CCCO1 (centres unmarked)	2.72
CCc1ccc(CN(C)C(=O)CCc2nnc(COc3ccccc3)o2)cc1	-18.9
Cc1ccc(Nc2cc(=O)n(C3CCCCC3)c(=O)[nH]2)cc1C	12.4
O=C1N(O)C2(C=CCCC2)/C(=N\O)C12CCCCC2 (centres unmarked)	4.94
Nc1nc(-c2cccnc2)nc(N2CCCCC2)n1	-13.6
Cl.NC(=O)CSc1nnc([C@@H](N)Cc2c[nH]c3ccccc23)o1	8.1
CNc1nc(OCC#N)nc(N2CCCCC2)n1	6.01
Cn1c(N)c(C(=O)CSc2nnc(-c3ccccc3F)n2C2CC2)c(=O)n(C)c1=O	19.4
Cc1cccc(N(CC(=O)NCCSc2nc3ccccc3s2)S(=O)(=O)c2ccccc2)c1	17.3
Cc1ccc(-c2c(=O)n(O)c3ccccc3[n+]2[O-])cc1	17.4
CCc1cc(-c2n[nH]c(=S)n2-c2cccc(C)c2)cs1	10.9
CCOc1cc(CNC(C)(C)C)ccc1OCC(=O)Nc1cccc(C(F)(F)F)c1.Cl	-13.7
CC(=O)c1ccc(OCC(=O)Nc2ccccc2N2CCCC2)cc1	-2.74
Cn1c(/C(C#N)=C2/CCCCCN2)nc2ccccc21	-12.5
O=C(CCN1C(=O)c2cccc3cccc(c23)C1=O)N1CCN(c2ccccc2F)CC1	6.93
Cc1nn(C(C)C(=O)N2CCCCC2)c(=O)c2c1sc1ccccc12 (centres unmarked)	7
C=CCOC(=O)COc1ccc2c(C)c(C)c(=O)oc2c1C	-8.88
[N-]=[N+]=NCCN1CCC(O)CCC1=O (centres unmarked)	-5.01
CC(=O)c1cc(C#N)c(SCC(=O)C(C)(C)C)nc1C	-3.14

SMILES	hERG current change (%, negative = inhibition) at 10uM [%]
O=C(CN(c1cccc(C(F)(F)F)c1)S(=O)(=O)c1ccccc1)N1CCOCC1	-30.5
O=C(Nc1ccc2ccccc2c1)c1cn(-c2ccccc2)nc1-c1cccs1	2.89
O=C(NCCc1ccccc1)C1CCCN(c2ncnc3c2nc2n3CCCCC2)C1 (centres unmarked)	-59.9
O=C1[C@@H]2[C@H](C(=O)N1Cc1ccco1)[C@H]1C=C[C@@H]2C1	-0.451
O=C(NCc1csc2ccccc12)Nc1cc(Cl)cc(Cl)c1	13.6
CCc1c(C)nc2c(-c3ccccc3OC)c(C)[nH]n2c1=O	11.2
NC(=O)COC(=O)c1ccccc1OCc1ccccc1Cl	-14.4
CN1C/C(=N\S(=O)(=O)c2ccccc2)N(C)C1=O	10.7
CC(C)CN(/C=N/c1sc2c(c1C#N)CCCCC2)CC(C)C	17.3
O=C(CCS(=O)(=O)c1ccc(Br)s1)NCc1ccccc1	15.3
O=C(NCCCN1CCOCC1)NC12CC3CC(CC(C3)C1)C2	1.72
CCOc1ccc(OCCC(=O)OCC(=O)NC2CCCCC2)cc1	11.4
COc1ccc([C@@H]2CC=C(C(=O)O)[C@H](c3ccccc3F)N2S(=O)(=O)c2ccc(C)cc2)cc1OC	20.7
O=C(NCCNC(=O)c1ccc(Br)o1)c1cccnc1	10.1
COC(=O)c1nn(-c2ccccc2)c(Sc2ccc(Br)cc2)c1/C=N/O	6.5
CC(C)N(Cc1nccn1C)C(=O)c1ccc(OC2CCN(C(=O)C3CC3)CC2)cc1	11.1
COc1ccccc1OCCn1c(=O)n(C)c2ccccc21	0.54
CN(CC(=O)Nc1c(Cl)cccc1Cl)C(=O)c1cc(S(=O)(=O)N(C)C)ccc1N1CCCC1	-0.107
CC1=CCC(Cc2nc3ccccc3o2)C1(C)C (centres unmarked)	3.37
O=C(NC1CC1)c1scc2c1OCCO2	10.8
CN(C)CC(O)COc1ccc(C(C)(C)c2ccc(OCC(O)CN(C)C)cc2)cc1.Cl (centres unmarked)	12.5
CC1CC(c2ccccc2)n2nc(N3C(=O)c4ccccc4C3=O)nc2N1 (centres unmarked)	12.4
CN(C)c1ccc(N=c2sc3ccccc3n2C)cc1	-0.278

SMILES	hERG current change (%, negative = inhibition) at 10uM [%]
Cc1ccc(NC(=O)CSc2ccc(-c3cccnc3)nn2)cc1	-12.3
O=C(CSc1nnnn1-c1ccccc1F)Nc1nc2ccccc2s1	-10.9
CCOn1c(=O)c(-c2ccc(OC)c(OC)c2)[n+]([O-])c2ccccc21	4.12
CC(=O)c1ccc(Nc2c(C)n(C)n(-c3ccccc3)c2=O)cc1	23.3
O=C(Cn1nc(Cc2cccnc2)c2ccccc2c1=O)NCC1COc2ccccc2O1 (centres unmarked)	-57.4
O=[N+]([O-])c1cccc(-c2cc(-c3cc(Br)ccc3O)[nH]n2)c1	20.2
N#CC(c1ccccc1)c1ccc(C(=O)c2ccc(F)cc2)cc1 (centres unmarked)	-11.4
COc1cc(-c2cc(C(F)(F)F)n3ncc(C(=O)O)c3n2)cc(OC)c1OC	13.2
Cc1ccc(C)c(-c2cc(C(=O)NNC(=S)NCC(C)C)c3ccccc3n2)c1	12.9
Cc1cc(-c2nsc(=O)o2)c(S(C)(=O)=O)s1	10.7
COc1ccc2c(c1)[nH]c(=O)c1sc3ccccc3c12	10.9
CCOc1ccc(NC(=O)CSc2nncc(=O)[nH]2)cc1	16.6
CCC(C)(C)NC(=O)C(c1ccc(C)o1)N(C(=O)c1csnn1)c1cccc(F)c1 (centres unmarked)	-4.59
COc1cc(OC)c(C2SCCN2S(=O)(=O)c2ccc(F)cc2)cc1OC (centres unmarked)	15.9
COc1cc2cccc(OC)c(=O)c2c(OC)c1OC	10.9
Cc1ccccc1NC(=S)/C(=C(\[O-])c1cc(C)n(Cc2ccccc2Cl)c1C)[n+]1ccccc1	11.6
CCOC(=O)C1=C(C)C(c2ccccc2O)NC(=O)N1 (centres unmarked)	3.36
C=CCN(CC=C)C(=O)CN1C(=O)NC(Cc2c[nH]c3ccccc23)C1=O (centres unmarked)	17
Cc1ccc(-c2nc3ccsc3c(=O)[nH]2)cc1	20.8
c1csc(-c2nnc(NC3CCCCC3)c3ccccc23)c1	-75.4
